# Test results: PubChem BioAssay AID687022 (Broad Institute, 2013)
# Among all 1,000 compounds or so, about 360 (36%) were called active.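 The calls were made as follows: active = Fitted curve of melting temperature shift crosses the 1.0 threshold at or below the sample's highest valid tested concentration; inconclusive = Flat fit with activity 30 to 70, or invalid fit; inactive = Opposite direction, flat within 30, or no crossing.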 The list lacks most of the strong results.
# Molecular target: Fibroblast growth factor 22 (Homo sapiens) (UniProt Q9HCT0)
# Assay: FGF22 ligand-induced thermal stabilization – biophysical, thermal shift, cherry-pick, FGF22 synaptogenesis inhibitor project, dose response (AID 687022); also: reference of the scale not given here
# Conditions: recombinant FGF22 thermal shift, SYPRO orange melting; at 38 µM (top of the series) unless noted
# Sequence of UniProt Q9HCT0 (Q9HCT0 whole entry, looked up): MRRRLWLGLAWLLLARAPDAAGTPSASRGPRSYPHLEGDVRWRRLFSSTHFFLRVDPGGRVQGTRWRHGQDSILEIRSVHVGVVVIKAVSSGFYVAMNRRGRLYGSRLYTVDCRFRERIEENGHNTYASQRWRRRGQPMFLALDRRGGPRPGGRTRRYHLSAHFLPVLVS
row,Compound,Tm shift activity
1,CC(C)NC(=O)N1C[C@@H]2[C@H](c3ccccc31)[C@H](CO)N2C(=O)c1ccccn1,inactive: -0.161% [at 42 µM]
2,Cc1c(CCO)sc[n+]1CC(=O)OC12CC3CC(CC(C3)C1)C2,inactive: 0.081%
3,C/C=C/c1ccccc1[C@@H]1[C@@H](C#N)N(C(C)=O)[C@@H]1CO,inactive: -0.133% [at 42 µM]
4,COC(=O)C[C@@H]1CC[C@@H]2[C@@H](COc3ccc(NC(=O)c4ccc(F)c(F)c4)cc3C(=O)N2C)O1,inactive: 0.008%
5,C[C@@H]1CN([C@H](C)CO)C(=O)c2cc(N(C)C)ccc2O[C@@H]1CN(C)CC1CCCCC1,inactive: -0.113% [at 42 µM]
6,CC1CC(CC(=O)NC(=S)Nc2ccccc2Cl)C(=O)O1 (stereo not given),inactive: -0.235%
7,Cc1ccc(NC(=O)CN(C)C(C)C(=O)Nc2ccc(S(=O)(=O)N3CCCC3)cc2)cc1 (stereo not given),inactive: -2.89%
8,CC(C)C#Cc1ccc([C@@H]2[C@H](CO)N3C(=O)CN(C(=O)C4CCCCC4)C[C@@H]23)cc1,inactive: -2.73%
9,O=C(N[C@H]1CC[C@@H](CCNS(=O)(=O)c2ccc(F)cc2)O[C@H]1CO)c1ccccn1,inactive: -0.151% [at 42 µM]
10,Cc1nc2ccc(Br)cc2c(-c2ccccc2)c1C(=O)O,inactive: -0.524%
11,COCC(=O)N1C[C@@H]2[C@H](c3ccccc31)[C@H](CO)N2C(=O)c1ccccc1F,inactive: 0.006% [at 42 µM]
12,C=CCC1c2cccc(C(=O)O)c2C(=O)N1c1cccc(OC)c1 (stereo not given),inactive: 0.004%
13,OC[C@@H]1[C@H](c2ccc(-c3cccnc3)cc2)[C@@H]2CN(Cc3ccccn3)CCCCN12,inactive: -0.247%
14,O=C(C[C@@H]1CC[C@H]2[C@@H](COC[C@@H](O)CN2Cc2cc(F)ccc2F)O1)NCc1ccc(F)cc1,inactive: -0.101% [at 42 µM]
15,O=C(NCC[C@H]1CC[C@H](NC(=O)C2CCOCC2)[C@@H](CO)O1)Nc1ccc(Cl)cc1,inactive: 0.172%
16,C[C@@H]1CN([C@H](C)CO)C(=O)c2cc(Br)cnc2O[C@@H]1CN(C)Cc1ccc(F)cc1,inactive: 19.5%
17,CC(C)C#Cc1ccc([C@@H]2[C@@H](CO)N3C(=O)CN(C(=O)C4CCCCC4)C[C@@H]23)cc1,inactive: -1.19%
18,C[C@H](CO)N1C[C@H](C)[C@@H](CN(C)C(=O)Nc2cccc3ccccc23)Oc2c(NC(=O)C3CC3)cccc2C1=O,inactive: -0.274%
19,O=C(C[C@@H]1C[C@H]2c3cc(NC(=O)C4CCC4)ccc3O[C@H]2[C@@H](CO)O1)NCc1cc(F)ccc1F,inactive: 0.045% [at 42 µM]
20,CCc1ccc(NC(=O)COc2coc(CN3CCN(c4ccccc4)CC3)cc2=O)cc1,inactive: 0.11%
21,OC[C@H]1[C@@H]2c3ccccc3NC[C@@H]2N1Cc1ccccc1Cl,inactive: -0.374% [at 42 µM]
22,COc1ccc(NC(=O)N(C)C[C@H]2Oc3ccc(NS(=O)(=O)c4ccc(Cl)cc4)cc3C(=O)N([C@H](C)CO)C[C@H]2C)cc1,inactive: 0.094% [at 42 µM]
23,OC[C@H]1[C@@H](c2ccc(-c3cccnc3)cc2)[C@H]2CN(Cc3ccccn3)CCCCN21,inactive: -0.026%

row,Compound,Tm shift activity
1,Cc1ccc(N(CCC#N)C(=O)COC(=O)c2cc(C)no2)cc1,inactive: -0.01%
2,Cc1ccc2c(c1)C1CN(C)CCC1N2S(=O)(=O)c1ccc(C(C)C)cc1 (stereo not given),inactive: -0.021%
3,O=C(NCC[C@@H]1CC[C@H](NC(=O)C2CCOCC2)[C@H](CO)O1)Nc1ccc(Cl)cc1,inactive: 0.002% [at 42 µM]
4,Cc1[nH]c2ccccc2c1C(=O)C(=O)NCCOc1ccccc1,inactive: 0.288%
5,CCC1CCCCN1C(=O)CCNC(=O)Cn1cnc2ccccc2c1=O (stereo not given),inactive: -0.124%
6,NC(=O)c1cccnc1Nc1ccccc1F,inactive: 0.31% [at 10 µM]
7,CC(C)N(C[C@H]1[C@H](c2ccccc2)[C@@H](CO)N1S(C)(=O)=O)C(=O)CN(C)C,inactive: -0.02%
8,Cc1ccccc1C(=O)Nc1nnc(S(=O)(=O)N2CCCCC2)s1,inactive: -0.158%
9,COc1ccc(C(=O)N2C[C@H]3[C@@H](c4ccccc42)[C@@H](CO)N3C(=O)c2ccc(F)cc2)cc1,inactive: -0.083% [at 42 µM]
10,C[C@H]1CN([C@@H](C)CO)C(=O)c2cc(NC(=O)CCC(F)(F)F)ccc2O[C@H]1CN(C)CC1CC1,inactive: -0.033% [at 10 µM]
11,Cc1ccc(S(=O)(=O)NCc2cccnc2)cc1C,inactive: -0.415%
12,C[C@H]1CN([C@@H](C)CO)C(=O)c2cc(NS(=O)(=O)c3ccc(Cl)cc3)ccc2O[C@@H]1CN(C)C(=O)Nc1ccc2c(c1)OCO2,inactive: 0.029% [at 42 µM]
13,COCCN1CCN(Cc2nc(Cc3ccc(OC)c(OC)c3)no2)CC1,inactive: -0.027%
14,CN1C(=O)c2cc(NC(=O)Cc3ccccc3)ccc2OC[C@@H]2O[C@H](CC(=O)O)CC[C@H]21,inactive: -0.126%
15,COc1ccc(-c2cc(=O)oc3cc(OCC(=O)N[C@@H](Cc4c[nH]c5ccccc45)C(=O)O)ccc23)cc1,inactive: 0.539%
16,CCOC(=O)C1CCN(C(=O)CNC(=O)c2nn(-c3ccc(OC)cc3OC)c(=O)c3ccccc23)CC1,inactive: 0.053%
17,CCOC(=O)N1CCc2c(sc(NC(=O)C3COc4ccccc4O3)c2C(N)=O)C1 (stereo not given),inactive: -0.029%
18,O=C(Nc1ccccc1Cl)N1[C@H](CO)[C@@H]2c3ccccc3NC[C@@H]21,inactive: -0.115%
19,O=C(Nc1cccc(-c2cnc3ccccc3n2)c1)c1ccncc1,inactive: 0.116%
20,C[C@H]1CN([C@@H](C)CO)C(=O)CCCn2cc(nn2)CO[C@@H]1CN(C)Cc1cccc(C(=O)O)c1,inactive: -0.132%
21,C[C@H](CO)N1C[C@H](C)[C@@H](CN(C)S(=O)(=O)c2ccccc2)Oc2ccc(NS(=O)(=O)c3cn(C)cn3)cc2C1=O,inactive: -0.218%
22,COc1ccccc1N(C)S(=O)(=O)c1ccc(C(=O)Nc2ccc(C(N)=O)cc2)cc1,inactive: 0.212%
